In all, about 310,000 compounds went through this assay and about 14,000 (4.5%) showed an effect of 50% or more. The effect is printed as a negative number. This is one part of the list.
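Also: peak tail current of the secondary pulse compared with the same well before compound.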

The target in this experiment is human ether-à-go-go-related gene (hERG) potassium channel (human, UniProt Q12809). Put plainly: primary screen, population patch clamp on CHO cells stably expressing hERG.
human ether-à-go-go-related gene (hERG) potassium channel, sequence (Q12809 whole entry, looked up): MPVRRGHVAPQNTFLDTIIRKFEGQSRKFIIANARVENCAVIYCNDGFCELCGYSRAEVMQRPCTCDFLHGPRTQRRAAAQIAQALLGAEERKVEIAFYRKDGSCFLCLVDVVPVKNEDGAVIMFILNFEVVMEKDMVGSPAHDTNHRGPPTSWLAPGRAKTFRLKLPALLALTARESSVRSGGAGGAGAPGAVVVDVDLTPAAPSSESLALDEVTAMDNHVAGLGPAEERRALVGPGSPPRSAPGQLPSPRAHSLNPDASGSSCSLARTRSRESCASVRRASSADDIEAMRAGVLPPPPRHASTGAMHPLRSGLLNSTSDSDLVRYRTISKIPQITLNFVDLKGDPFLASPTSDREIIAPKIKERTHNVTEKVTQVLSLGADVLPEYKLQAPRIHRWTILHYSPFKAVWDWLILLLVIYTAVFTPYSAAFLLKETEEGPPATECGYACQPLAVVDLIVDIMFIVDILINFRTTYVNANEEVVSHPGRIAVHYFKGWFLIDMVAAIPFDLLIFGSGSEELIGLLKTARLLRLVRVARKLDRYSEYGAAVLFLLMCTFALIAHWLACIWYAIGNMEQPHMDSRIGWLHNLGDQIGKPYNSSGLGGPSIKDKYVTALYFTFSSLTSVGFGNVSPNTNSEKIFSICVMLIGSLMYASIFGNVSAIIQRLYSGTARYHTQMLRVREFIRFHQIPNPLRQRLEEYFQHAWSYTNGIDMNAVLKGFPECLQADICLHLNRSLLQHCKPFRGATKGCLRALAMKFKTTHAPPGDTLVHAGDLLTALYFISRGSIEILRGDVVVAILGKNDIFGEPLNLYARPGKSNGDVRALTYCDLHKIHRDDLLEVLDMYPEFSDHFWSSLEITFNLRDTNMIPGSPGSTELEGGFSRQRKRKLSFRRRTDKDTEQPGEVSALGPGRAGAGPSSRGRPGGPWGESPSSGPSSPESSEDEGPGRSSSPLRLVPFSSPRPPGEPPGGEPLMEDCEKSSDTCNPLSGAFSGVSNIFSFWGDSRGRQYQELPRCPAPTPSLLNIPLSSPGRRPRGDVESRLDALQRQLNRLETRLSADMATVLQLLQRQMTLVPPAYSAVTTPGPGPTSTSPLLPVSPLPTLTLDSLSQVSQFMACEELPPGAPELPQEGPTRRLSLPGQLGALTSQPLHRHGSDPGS
On to `O=C(O)C(=O)O.O=S(=O)(c1ccccc1)N1CCN(CC2CC3C=CC2C3)CC1` (stereo not drawn), for which the “hERG current change (%, negative = inhibition) at 10uM” value is on record as -7.54%.

Regarding `CCOC(=O)C1CCCN(Cc2c(F)cccc2Cl)C1` (stereo not drawn), the “hERG current change (%, negative = inhibition) at 10uM” value is listed as -11%.

Consider `CC(=O)NCCC(=O)Nc1cc(S(=O)(=O)N2CCOCC2)ccc1Oc1ccccc1`, for which the “hERG current change (%, negative = inhibition) at 10uM” value is recorded as -8.45%.

As for `CCN(CC(=O)Nc1ccccc1C(F)(F)F)C(=O)c1ccc(=O)n(Cc2ccccc2)n1`, the “hERG current change (%, negative = inhibition) at 10uM” value is -22%.

As to `O=C(NC(Cc1ccccc1)C(=O)N1CCN(S(=O)(=O)c2ccccc2F)CC1)c1ccccc1` (stereo not drawn), the “hERG current change (%, negative = inhibition) at 10uM” value came out at 12.8%.

Turning to `Cc1cc(C)nc(/N=c2/ssnc2Cl)c1`, the “hERG current change (%, negative = inhibition) at 10uM” value is -2.38%.

As to `CCOC(=O)c1ccc2nc(NC(=O)c3cccs3)sc2c1`, the “hERG current change (%, negative = inhibition) at 10uM” value is 8.13%.

Take `C=CCSc1nc2ccccc2n1C(=O)/C=C/c1cc(OC)c(OC)c(OC)c1`: the “hERG current change (%, negative = inhibition) at 10uM” value was determined as 5.1%.

Regarding `O=C(c1ccc2c(c1)OCCO2)C1CCN(C(=O)c2ccc(F)c(F)c2)CC1`, the “hERG current change (%, negative = inhibition) at 10uM” value is recorded as -15.7%.

Turning to `CCOC(=O)[C@H]1[C@H]2COc3cc(OC)ccc3[C@@H]2N2C(=O)c3cc(F)c(F)cc3NC(=O)[C@@]12C`, the “hERG current change (%, negative = inhibition) at 10uM” value is -6.33%.

On to `O=C(COc1ccccc1)N(Cc1ccco1)C1CCS(=O)(=O)C1` (stereo not drawn), for which the “hERG current change (%, negative = inhibition) at 10uM” value was -11.5%.

For `CC(=O)N1CCN(S(=O)(=O)c2cccc(C(=O)Nc3nc4ccccc4[nH]3)c2)CC1`, the “hERG current change (%, negative = inhibition) at 10uM” value came out at 9.65%.

Take `O=CN1CCN(C2CC(=O)N(c3ccc4c(c3)OCO4)C2=O)CC1` (stereo not drawn): the “hERG current change (%, negative = inhibition) at 10uM” value is -4.9%.

As for `CCc1sc(NC(=O)CN2CCOCC2)nc1-c1ccccc1`, the “hERG current change (%, negative = inhibition) at 10uM” value is -12.1%.

Take `COc1ccc(C#Cc2c(-c3ccc(OC)cc3)oc3ccc(-c4ccc(OC)cc4)cc23)cc1`: the “hERG current change (%, negative = inhibition) at 10uM” value is -10.9%.

As for `Cc1ccc(/C=N/NC(=O)c2c[nH]c3ccccc23)o1`, the “hERG current change (%, negative = inhibition) at 10uM” value worked out at 8.53%.

In the case of `CCC(C(=O)Nc1ccc(S(=O)(=O)Nc2ncccn2)cc1)c1ccccc1` (stereo not drawn), the “hERG current change (%, negative = inhibition) at 10uM” value is recorded as 17.2%.

In the case of `CN(C)c1ccc(C(=O)Nc2nnc(C3=COCCO3)o2)cc1`, the “hERG current change (%, negative = inhibition) at 10uM” value was found to be 11.3%.

`N#CCCN(Cc1ccccc1)S(=O)(=O)c1cccs1`: the “hERG current change (%, negative = inhibition) at 10uM” value is recorded as -16.5%.

For `Cc1cc(=O)oc2c3c(cc(OCC(=O)NCc4ccccc4)c12)OC(C)(C)CC3`, the “hERG current change (%, negative = inhibition) at 10uM” value is on record as -8.45%.

In the case of `Cl.c1ccc(C2CCC(N3CCNCC3)CC2)cc1` (stereo not drawn), the “hERG current change (%, negative = inhibition) at 10uM” value is reported as -6.76%.

Regarding `O=C(Cc1ccc([N+](=O)[O-])cc1)Nc1ccc(Br)cn1`, the “hERG current change (%, negative = inhibition) at 10uM” value is reported as -5.38%.

On to `Cc1sc(Cc2nc(O)cs2)nc1-c1ccccc1`, for which the “hERG current change (%, negative = inhibition) at 10uM” value is given as 26.6%.

With `COC(=O)c1ccccc1NC(=O)N1CCc2ccc(NC(=O)c3ccccn3)cc2C1`, the “hERG current change (%, negative = inhibition) at 10uM” value is -16.4%.

These data come from article PMC4336329 (PLoS ONE, 2015).
